The supplement of paper PMC3334620
The full ranking holds about 33,000 sequences; the median of “E-score (-0.5 to 0.5)” is about -0.04, and the highest 2% start at about 0.36. Some of the results follow.

These sequences were tested against T1, Hmlalpha2 (UniProt P0CY09) (assay: PBM E-score (8-mer binding enrichment) (E-score (-0.5 to 0.5)); higher = stronger / more preferred TF binding; most listed sequences are background and not binding sites). Conditions: protein concentration: 200 nM; construct: GST-full length.
T1 sequence: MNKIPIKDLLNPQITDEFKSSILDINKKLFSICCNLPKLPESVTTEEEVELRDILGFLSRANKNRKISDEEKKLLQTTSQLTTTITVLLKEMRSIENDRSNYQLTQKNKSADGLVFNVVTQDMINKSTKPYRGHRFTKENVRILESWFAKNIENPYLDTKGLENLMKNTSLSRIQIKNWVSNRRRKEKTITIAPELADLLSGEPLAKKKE
How it was run: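 Bound GST-tagged yeast transcription factors, applied at about 100-200 nM to double-stranded universal all-10-mer Agilent arrays, were detected with fluorescent anti-GST. Scans were normalised with masliner. A modified Wilcoxon-Mann-Whitney statistic, the E-score, was assigned to each ungapped eight-base word pooled with its reverse complement by the Universal PBM Analysis Suite.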

Row | Sequence | PBM E-score
1 | CGCATGAC | -0.0353
2 | CTGGCCCA | -0.273
3 | AGGTGTCG | -0.248
4 | CATCAGGA | -0.0998
5 | AGCCGCTA | -0.246
6 | AGACACCC | 0.0364
7 | AATCAAGC | -0.063
8 | CAACTTAC | 0.145
9 | AATTAATA | 0.329
10 | ATCACGTG | 0.172
11 | ATAATATA | 0.285
12 | GAGTGCGC | -0.205
13 | CGCTCCAG | 0.0252
14 | ATATGATA | 0.252
15 | GGGAGGTA | -0.194
16 | AAATTCCA | 0.223
17 | GCACGGCA | -0.108
18 | TCAGAGCA | -0.283
19 | GACTTAAC | 0.103
20 | ACTCAAAT | 0.0409
21 | ACAACAAC | 0.316
22 | ACGCTGTG | 0.312
23 | GGCGCTAA | -0.219
24 | GACTCCGC | -0.0817
25 | CCTCTCAG | -0.259

Row | Sequence | PBM E-score
26 | CTTTGCAA | -0.0128
27 | ACCCGTTG | 0.00752
28 | ACCGGAAC | -0.233
29 | AGACGTTG | -0.0957
30 | AGTAGTTC | 0.0977
31 | AGGGTTGC | -0.134
32 | CACAGGAC | -0.022
33 | CAAGCGCC | -0.207
34 | AAATCGAT | 0.0888
35 | ACTTTAGG | 0.0276
36 | ACCTAGAG | -0.0756
37 | GTCGGGCA | -0.152
38 | CCAGCCAC | -0.105
39 | CCCCGTAA | -0.0104
40 | ATGAAACG | -0.0624
41 | GAGCCTAC | -0.154
42 | ATTATTGA | 0.0979
43 | GAAAAGTC | -0.162
44 | AAGAGAGG | -0.2
45 | TACATGGA | 0.429
46 | AAATGTTG | 0.0925
47 | AGAATGCT | 0.0411
48 | ATAATTCC | 0.0173
49 | GTCCGGGA | -0.058
50 | ACCTACCC | -0.176

Row | Sequence | PBM E-score
51 | CCAATATC | -0.316
52 | ATCTCACA | 0.0174
53 | TGCGAAAA | 0.261
54 | CCTCACGA | -0.276
55 | AGCAAAGC | -0.102
56 | TAACATTA | 0.331
57 | CACTTCGG | -0.165
58 | GGTTCTCA | -0.0328
59 | ATTATATG | 0.23
60 | AGTGGCAG | -0.28
61 | CCCCGTAG | -0.237
62 | CTCAATGA | -0.0147
63 | TAGGACCA | -0.0947
64 | CGTGCGAC | 0.0281
65 | CATCCAAA | 0.0919
66 | AAGAAAGA | -0.0528
67 | GGTGCCGA | -0.0679
68 | CTAGAAAC | -0.0507
69 | TGATCGCA | -0.0971
70 | ACGGTCGG | -0.0798
71 | AGCTCTCG | -0.158
72 | ATCTGACA | 0.00704
73 | CCATGTAG | 0.416
74 | AATGCCCT | -0.233
75 | CGTATCTA | 0.00186

Row | Sequence | PBM E-score
76 | CAGGTAAC | 0.0879
77 | ACAGAAAC | 0.196
78 | CGATATCG | 0.157
79 | CCCTCAAC | -0.124
80 | AGATGAGG | -0.29
81 | GAAACCTC | -0.176
82 | AGGAGTGC | -0.232
83 | CCTCTCCG | -0.305
84 | AGTGACAA | 0.0251
85 | AGTAGGCA | -0.0234
86 | TCACGACA | 0.116
87 | ACGACTCG | -0.00304
88 | AAGCCATT | 0.0732
89 | AACTATTG | 0.145
90 | TTACGAAA | 0.243
91 | AGTAACCC | -0.0544
92 | CCCAAAGC | -0.217
93 | ATAGCTTC | -0.139
94 | GATACTAC | 0.102
95 | AGGAGGCC | -0.323
96 | CTCGGGTC | -0.158
97 | GAATATAA | -0.00557
98 | CGGTAATA | -0.00682
99 | ACGTAGCA | 0.0657
100 | CGCCTTCC | -0.267

Row | Sequence | PBM E-score
101 | CGACGACC | -0.298
102 | AAGGTTAA | 0.0903
103 | ATTCCAAC | 0.072
104 | GCCCGGCC | -0.295
105 | GGCGGATA | -0.0488
106 | AAACATTC | 0.133
107 | AGCCGGAA | -0.0614
108 | CGTGCGTA | 0.28
109 | GCCAACCA | -0.308
110 | AGATTAGG | -0.124
111 | CGCGCTAA | 0.125
112 | GAATGTAA | 0.372
113 | CGAGCACA | 0.0673
114 | AGCCTTTG | -0.248
115 | ACAGCCGA | -0.099
116 | AACGGAAT | 0.084
117 | CTAAGATC | -0.0578
118 | AGCGTTTC | -0.017
119 | CCCAATAG | -0.109
120 | GCGTCCGA | -0.0617
121 | GGTAGGTA | 0.0354
122 | ATCCTGTG | -0.00153
123 | CCAGTCGG | -0.257
124 | GATAGACA | 0.0354
125 | AATAATTA | 0.288

Row | Sequence | PBM E-score
126 | ATGGGCGG | -0.155
127 | ATTAGTAC | 0.162
128 | AAGTATGG | -0.0254
129 | CATTAGCA | 0.176
130 | TGACCTAA | 0.0337
131 | CTTTCCGC | -0.0913
132 | AGGTGACT | 0.0246
133 | CCACATTC | -0.185
134 | GCAGATCC | 0.0163
135 | AGGGGGCC | -0.278
136 | GTCCATCA | -0.203
137 | AGGTCCCG | -0.144
138 | GTAAGGCA | 0.0168
139 | CACGGCTG | -0.00299
140 | CCCCCGGC | -0.235
141 | ATATGGAG | -0.0168
142 | GATCCCGA | -0.245
143 | CTGGGAGA | -0.262
144 | CAGCCCCC | -0.342
145 | AGCTGGGG | -0.288
146 | GTACCGAA | 0.0584
147 | GGGATCGA | -0.186
148 | CGCACCAA | -0.0797
149 | ACGAATTC | 0.011
150 | ACCGTACC | -0.255

Row | Sequence | PBM E-score
151 | AAAAACAA | 0.228
152 | CGTCCTCA | -0.172
153 | GGCTGAGA | -0.248
154 | ATGCAGAG | -0.0802
155 | ATGGCGAA | -0.0009
156 | GACAACTC | 0.0205
157 | ACCCCCTC | -0.173
158 | CCATGGTC | -0.232
159 | CCAGTTCA | -0.0858
160 | GAGGATAC | 0.0495
161 | CCTCAGTA | -0.236
162 | AATCATTA | 0.107
163 | CAGGTGGC | -0.237
164 | ATAGTTGC | 0.175
165 | ACCAGCCG | -0.251
166 | ACTTGAAT | 0.0654
167 | CGACCTCC | -0.161
168 | TACAGAAA | 0.163
169 | CGTAGTCA | 0.0306
170 | ATAAGGCG | -0.00126
171 | GGAGGAAC | -0.0482
172 | CGGTCAAA | 0.031
